Laboratory results published in PubChem BioAssay AID488969 (Vanderbilt High Throughput Screening Facility, 2010).
Over roughly 110,000 compounds, “z-score” has its median near -0.1; the highest 2% begin near 2. Some of the results follow. Calls of active or inactive are those of the source.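 Rule for the calls: active = z-score in the third read window above 3 or below -3; inactive = the rest.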

Each compound was assayed against Metabotropic glutamate receptor 8 (Rattus norvegicus) (UniProt P70579) (assay: mGluR8 Gi/Go-coupled signaling modulation – cell-based, rat, thallium flux, HTS, primary screen (AID 488969)). Conditions: HEK293 rat mGluR8, GIRK (G protein-gated inwardly rectifying potassium channel) thallium flux, FluoZin2; at 10 µM; stronger effect = higher value; submaximal glutamate (EC20) added with thallium.
Sequence of UniProt P70579 (P70579 whole entry, looked up): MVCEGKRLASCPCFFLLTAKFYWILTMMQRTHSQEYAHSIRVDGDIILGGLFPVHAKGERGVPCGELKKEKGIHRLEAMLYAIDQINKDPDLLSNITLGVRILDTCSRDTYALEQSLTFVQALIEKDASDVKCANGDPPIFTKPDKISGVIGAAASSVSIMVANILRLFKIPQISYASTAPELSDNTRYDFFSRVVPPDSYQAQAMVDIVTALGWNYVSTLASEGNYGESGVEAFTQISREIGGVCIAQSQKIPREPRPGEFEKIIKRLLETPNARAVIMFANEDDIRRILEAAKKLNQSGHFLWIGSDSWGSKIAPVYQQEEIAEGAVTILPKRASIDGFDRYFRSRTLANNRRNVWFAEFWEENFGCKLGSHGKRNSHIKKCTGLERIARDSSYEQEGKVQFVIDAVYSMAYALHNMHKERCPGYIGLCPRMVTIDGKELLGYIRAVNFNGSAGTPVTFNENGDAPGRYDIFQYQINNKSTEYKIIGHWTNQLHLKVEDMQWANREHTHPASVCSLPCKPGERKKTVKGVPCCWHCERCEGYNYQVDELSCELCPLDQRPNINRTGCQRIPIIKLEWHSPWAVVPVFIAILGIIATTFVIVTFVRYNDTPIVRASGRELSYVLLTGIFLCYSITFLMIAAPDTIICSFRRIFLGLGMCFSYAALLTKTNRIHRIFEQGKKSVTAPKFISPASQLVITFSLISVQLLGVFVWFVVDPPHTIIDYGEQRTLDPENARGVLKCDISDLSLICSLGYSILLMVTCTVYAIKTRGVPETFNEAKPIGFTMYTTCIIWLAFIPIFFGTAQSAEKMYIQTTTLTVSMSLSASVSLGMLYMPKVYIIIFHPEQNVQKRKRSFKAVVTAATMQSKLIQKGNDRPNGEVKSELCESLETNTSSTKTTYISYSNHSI

Going from `O=C(CSc1nnc(-c2cccc(Cl)c2)o1)Nc1ccc2c(c1)OCCO2` to `O=C(CSc1ccc2nnc(-c3ccccn3)n2n1)Nc1ccc2c(c1)OCO2`, the z-score falls from -0.0175 to -0.598.

Compared with `Cc1nc(=O)c(-c2ccccc2)c(C)n1-c1cccc(C(=O)O)c1`, `Cc1ccccc1-c1cc(C(=O)n2cccn2)c2cc(Cl)ccc2n1` is lower in z-score: 1.11 for the first, -0.109 for the second.

Going from `O=C(O)CC(Cn1[nH]nnc1=S)c1ccccc1` (centres undefined) to `O=C(O)CCC(=O)CCC(=O)c1ccccc1`, the z-score rises from -0.0932 to 0.419.

Going from `COc1ccc(CC(=O)Nc2ccc3nc(C)sc3c2)cc1OC` to `COc1cc(NC(=O)c2ccc(-c3ccc(Br)cc3)o2)ccc1NC(=O)C(C)C`, the z-score rises from 0.0989 to 0.116.

Compared with `COc1cc2nc(SCc3ccc(C(F)(F)F)cc3)n(Cc3cccs3)c(=N)c2cc1OC`, `COc1cc2c(cc1OC)C(c1ccc(-c3ccccc3Cl)o1)=NCC2` is higher in z-score: 0.0241 for the first, 0.221 for the second.

Going from `CC(=O)Nc1ccc(Cl)cc1C(=O)O` to `CC(C)Cc1nnc(NC(=O)CC(=O)Nc2ccccc2C(=O)O)s1`, the z-score rises from -2.27 to -0.0541.

Compared with `O=[N+]([O-])c1ccc(N2CCCCCC2)c(S(=O)(=O)N2CCCCC2)c1`, `O=C(Nc1ccccc1)Nc1ccc(S(=O)(=O)N2CCCCC2)cc1` is lower in z-score: 0.0841 for the first, -0.197 for the second.

First: COC(=O)c1cc(COc2ccc3ccc(=O)oc3c2)c(C)o1
Second: COc1ccc(N2CCN(Cc3cc(=O)oc4cc(C)c(Cl)c(C)c34)CC2)cc1
The z-score of the first is higher: 0.2 for the first, -0.294 for the second.

Going from `CCOC(=O)NC(Nc1ccc(S(N)(=O)=O)cc1)(C(=O)OCC)C(F)(F)F` (centres undefined) to `CCCCC(=O)NCCc1ccc(S(N)(=O)=O)cc1`, the z-score rises from 0.00287 to 0.0853.

First: CCCCSC(=S)NC1CCS(=O)(=O)C1 (centres undefined)
Second: CCCCNC(=O)C1(c2ccc(OC)cc2)CCOCC1
The z-score of the first is higher: -0.0934 for the first, -0.117 for the second.

Compared with `Cc1ccc(-c2nnc(CSc3nncn3N)o2)cc1`, `Cc1cc(C)n2nc3ccccc3c2n1` is higher in z-score: -0.286 for the first, -0.00936 for the second.

Compared with `O=C1c2ccccc2NC(c2ccccc2Cl)N1N=C1CCCCCC1` (centres undefined), `CC(C)C(C(=O)Nc1ccccc1)N1C(=O)c2ccccc2C1=O` (centres undefined) is lower in z-score: -0.177 for the first, -0.45 for the second.

Compared with `COC(=O)C1C2C=CC3(CN(C4CCCC4)C(=O)C13)O2` (centres undefined), `CC(C)CNC(=S)NC1CC2CCCC(C1)N2Cc1ccco1` (centres undefined) is higher in z-score: -1.65 for the first, -0.323 for the second.

Going from `COc1ccc(-c2ccc(/C=C3/C(=N)N4C=CSC4=NC3=O)o2)c([N+](=O)[O-])c1` to `COc1cc(/C=C2/C(=N)N3C=CSC3=NC2=O)ccc1OCCCOc1ccccc1C`, the z-score falls from 0.455 to 0.0419.

Going from `CCOc1ccc(NC(=O)Cn2cncc2-c2ccc([N+](=O)[O-])cc2)cc1` to `C/C(=N/NC(=O)c1ccc(Cl)s1)c1ccc(NC(=O)COc2ccc(Cl)cc2)cc1`, the z-score rises from -0.224 to -0.207.

First: c1ccc(CNc2ncnc3sc4c(c23)CCC4)nc1
Second: CCn1c(SCC(=O)OC)nc2sc3c(c2c1=O)CCC3
The z-score of the first is lower: -0.648 for the first, -0.399 for the second.

Going from `CCn1ncc(CNC(=O)CCCSc2nc(-c3ccco3)cc(C(F)(F)F)n2)c1C` to `O=C(c1cnn2c(C(F)(F)F)cc(-c3ccco3)nc12)N1CCCCCC1`, the z-score rises from -1.05 to 2.24.

Going from `Nc1ccc(N2CCN(C(=O)c3ccco3)CC2)cc1` to `CCOC(=O)N1CCN(c2ccc(O)cc2)CC1`, the z-score falls from 0.119 to -0.138.

Going from `O=C(/C=C/Nc1ccccc1F)c1cccs1` to `O=C(Cc1nc2ccccc2[nH]1)NCc1ccco1`, the z-score rises from -0.0967 to 0.75.

Going from `CCC(CC)C(=O)Nc1cccc(/C(C)=N/NC(=O)c2c(Br)cnn2C)c1` to `CCC(C)NC(=O)CSc1nc2ccsc2c(=O)n1NC(=O)c1ccccc1` (centres undefined), the z-score falls from -0.0557 to -0.265.

Compared with `COC(=O)NNC(=O)c1ccc(C)cc1`, `COc1ccc(COC(=O)NNC(=O)c2ccc(OC)cc2)cc1` is lower in z-score: 0.0536 for the first, -0.0393 for the second.

Compared with `COc1ccc(OC)c(NC(=O)c2cnc3n(c2=O)CCS3)c1`, `COc1ccnc(CSC(N)=Nc2ccccc2OC)c1` is lower in z-score: 0.0316 for the first, -0.21 for the second.

First: CC(NC(=O)c1ccco1)C1COc2ccccc2O1 (centres undefined)
Second: O=C(Nc1ccccc1-c1nc2ccccc2s1)c1ccco1
The z-score of the first is lower: -0.128 for the first, -0.0204 for the second.

Compared with `COC(=O)c1sccc1NC(=O)CN(C)NS(=O)(=O)c1ccc(Cl)cc1`, `CN(C)S(=O)(=O)c1ccc(NC(=O)/C=C/c2ccccc2Cl)cc1` is higher in z-score: -0.811 for the first, -0.0315 for the second.

Compared with `Cc1cc(SCC(=O)NCCN2C(=O)CSC2=O)nc2c(C)cccc12`, `Cc1ccc(NC(=O)CCSCCC(=O)Nc2ccc(C)c(C)c2)cc1C` is higher in z-score: -0.139 for the first, -0.0616 for the second.

Compared with `COc1ccc(-c2nnc(OCc3nc4ccccc4n3C)c3ccccc23)cc1`, `COc1ccc(-c2csc(N3C(=O)C4C5c6ccccc6C(c6ccccc65)C4C3=O)n2)cc1` (centres undefined) is higher in z-score: -0.502 for the first, 0.0247 for the second.

First: Cc1ccc(N(CC(=O)N2CCOCC2)S(C)(=O)=O)cc1C
Second: CC(C)CNC(=O)c1ccccc1NC(=O)CN(c1ccc2c(c1)OCCO2)S(C)(=O)=O
The z-score of the first is lower: -0.191 for the first, 0.117 for the second.

Compared with `CCOc1ccc(C(=O)NCC(=O)OCC(=O)N2C(C)CCCC2C)cc1` (centres undefined), `CCOC(=O)CCSCC(=O)N1N=C(c2cccs2)CC1c1ccc(C)cc1` (centres undefined) is lower in z-score: -0.00547 for the first, -0.183 for the second.

Going from `CN1CCN(C(=O)CCCOc2cc(=O)n(C)c3ccccc23)CC1` to `CCOC(=O)N1CCN(C(=O)c2cc3c(=O)n(C)c4ccccc4c3n2C)CC1`, the z-score falls from -0.186 to -0.195.

First: COc1ccc(C(=O)C[n+]2ccc3c(c2)nc(-c2cc(OC)c(OC)cc2OC)n3C)cc1
Second: COc1ccccc1C1/C(=C(/O)c2ccc(C)cc2)C(=O)C(=O)N1CC(C)O (centres undefined)
The z-score of the first is higher: -0.0851 for the first, -0.364 for the second.

Compared with `COc1ccc(C=NC(CO)C(O)c2ccc([N+](=O)[O-])cc2)cc1` (centres undefined), `Cc1cccc2c(CCNC(=O)c3ccc([N+](=O)[O-])cc3)c[nH]c12` is lower in z-score: 0.263 for the first, -0.233 for the second.

First: COc1ccc(Nc2nc(C)c(-c3ccccc3)s2)cc1
Second: Cc1onc(-c2ccccc2)c1C(=O)NCCc1ccc(S(N)(=O)=O)cc1
The z-score of the first is higher: 0.186 for the first, 0.0031 for the second.

Going from `COc1ccc(CN=CC2=C(O)CNC2=O)cc1` to `COC(=O)c1ccc(COC(=O)c2ccc(N(C)C)cc2)cc1`, the z-score falls from -0.252 to -0.847.

First: CS(=O)(=O)N1CC(C(=O)NN)Oc2ccc(Cl)cc21 (centres undefined)
Second: CCCNS(=O)(=O)c1ccc2c(c1)CCCN2C(C)=O
The z-score of the first is lower: -0.56 for the first, 0.0768 for the second.

First: CCC(C)C(=O)Nc1ncc2c(n1)CC(c1cccs1)CC2=O (centres undefined)
Second: CC1=C(C(=O)OCC(C)C)C(c2ccccc2Cl)NC(=O)N1C (centres undefined)
The z-score of the first is higher: 0.31 for the first, -0.811 for the second.

Compared with `CCOc1ccccc1Nc1nc(N)nc(CN(C)C2CCCCC2)n1`, `CCOc1ccc2ccccc2c1/C=N/NC(=O)CNC(=O)Cc1ccccc1` is lower in z-score: 0.209 for the first, -0.191 for the second.

Compared with `Cc1cccc(C(=O)NC(NC(=S)Nc2ccc(S(N)(=O)=O)cc2)C(Cl)(Cl)Cl)c1` (centres undefined), `CC(C)C(=O)NC(NC(=S)Nc1ccc(S(N)(=O)=O)cc1)C(Cl)(Cl)Cl` (centres undefined) is lower in z-score: -0.112 for the first, -0.182 for the second.

First: O=C(Nc1ccccc1)C1CCN(c2nccs2)CC1
Second: O=C(CN1CCOCC1)Nc1ccccc1
The z-score of the first is higher: 0.101 for the first, -0.0461 for the second.

First: C/C(CCc1ccc2c(c1)OCO2)=N\N=C(/N)SC1CC(=O)N(c2ccccc2F)C1=O (centres undefined)
Second: O=C(c1cccn2c(=O)c3ccccc3nc12)N1CCN(Cc2ccc3c(c2)OCO3)CC1
The z-score of the first is lower: -0.0429 for the first, 0.133 for the second.

Going from `CCOC(=O)C1=C(C)NC(C)=C(C(=O)OCC)C1c1sccc1C` to `CCOC(=O)c1sc(NC(=O)C2CC2)cc1C`, the z-score rises from -0.713 to -0.273.

Compared with `Cn1c(=O)c2c(nc(SCC(=O)NC34CC5CC(CC(C5)C3)C4)n2C)n(C)c1=O`, `CCSc1nnc(CNC(=O)C23CC4CC(CC(C4)C2)C3)n1Cc1ccccc1` is lower in z-score: -0.0708 for the first, -0.373 for the second.

Going from `Cc1ccc(N2C(=O)[C@@H]3C(C(=O)CCN4C(=O)c5ccccc5C4=O)=NN[C@@H]3C2=O)cc1` to `Cc1cc(NS(=O)(=O)c2ccc(NC(=O)CCN3C(=O)c4ccccc4C3=O)cc2)no1`, the z-score rises from -0.0443 to 0.346.

Compared with `C=CCn1c(-c2cccnc2)n[nH]c1=S`, `C=CCNC(=S)NCc1cccnc1` is higher in z-score: 0.11 for the first, 0.214 for the second.

Compared with `CC(C)NC(=S)NC(=O)/C=C/c1ccc(F)cc1`, `C/C(=N\NC(=O)CC(C)C)c1ccc(N2CCCCC2)cc1` is lower in z-score: 0.778 for the first, -0.188 for the second.

First: CCOc1cc(/C=N/NC(=O)CSc2nncn2C)ccc1OCc1ccccc1
Second: O=C(CSc1nnnn1-c1ccc(F)cc1)Nc1nc2ccccc2s1
The z-score of the first is lower: -0.181 for the first, -0.0332 for the second.

First: Cc1ccc(C)c(S(=O)(=O)Nc2ccccc2C(=O)Nc2ccccc2N2CCOCC2)c1
Second: CC(=O)c1cc(-c2ccccc2)[nH]c1N1CCOCC1
The z-score of the first is higher: -0.108 for the first, -0.141 for the second.

Going from `Cc1ccc2c(=O)cc(C(F)F)oc2c1` to `CCOC(=O)Nc1ccc2c(CN3C(=O)NC4(CCCC4)C3=O)cc(=O)oc2c1`, the z-score falls from -0.151 to -1.22.

Compared with `CC(=O)C1=NN(c2ccccc2)C2(S1)S/C(=C\c1ccccc1)C(=O)N2c1ccccc1` (centres undefined), `O=C(NC(c1ccccc1)c1ccccc1)C1(c2cccs2)CCOCC1` is higher in z-score: 0.304 for the first, 0.325 for the second.

Going from `CCCOP(=O)(OCCC)C(Nc1cccc(C(F)(F)F)c1)c1ccc(C)cc1` (centres undefined) to `CCc1c(C(C)S(=O)(=O)c2ccc(C)cc2)[nH]c(=O)n1-c1ccc(OC(F)(F)F)cc1` (centres undefined), the z-score rises from -0.188 to -0.165.

Going from `Cc1ccc(CNC(=O)C2CC(c3cccc([N+](=O)[O-])c3)=NO2)o1` (centres undefined) to `O=[N+]([O-])c1ccccc1/C=C/C=N/n1c(-c2ccc(Cl)cc2)n[nH]c1=S`, the z-score rises from 0.0173 to 1.13.

First: CCC(=O)Nc1c(C(=O)N2CCN(c3ccccn3)CC2)cnn1-c1ccc(Cl)cc1
Second: CCOC(=O)n1c(=O)n(Cc2ccc(Cl)cc2Cl)c2ccccc21
The z-score of the first is higher: 0.153 for the first, -0.103 for the second.

Going from `O=C(NCCCn1ccnc1)c1cnn2c1NC(c1ccccc1)CC2C(F)(F)F` (centres undefined) to `Cc1ccccc1NS(=O)(=O)c1ccc(NC(=O)CSCc2ccc(Br)cc2)cc1`, the z-score rises from -2.61 to -0.00415.

First: COc1cc(NS(=O)(=O)c2ccc(NC(=O)c3ccco3)cc2)nc(OC)n1
Second: CC(NC(=O)COC(=O)[C@@H]1CCCN1S(=O)(=O)c1ccccc1F)C12CC3CC(CC(C3)C1)C2 (some centres undefined)
The z-score of the first is lower: -2.68 for the first, -0.122 for the second.

With `COC(=O)c1c(NS(=O)(=O)Cc2ccccc2)sc2c1CCCC2` the z-score was active: 17.
With `Cc1ccccc1N=Nc1ccc(O)c2ncccc12` the z-score was active: 4.67.
In the case of `FC(F)(F)c1cccc(NC(=S)NCc2ccccc2)c1`, the z-score is reported as active: 5.63.
